Some of the results follow. Repeats are few or missing, and single values can be far off.
Columns and labels:
Assay in all cases: cell count relative to DMSO control; melanoma cells; higher = more viable cells
Conditions in all cases: library dose: low library concentration; 72 h; first compound 0.4 µM
WM115 = system: WM115
WM1716 = system: WM1716
WM1745 = system: WM1745
WM3526 = system: WM3526
WM3619 = system: WM3619
WM451Lu = system: WM451Lu
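Further: cell number obtained by counting DAPI-stained nuclei in high-throughput microscope images with image analysis software, screen run in 1,536-well plates.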

| Structure (SMILES) | cell count (WM115) [%] | cell count (WM1716) [%] | cell count (WM1745) [%] | cell count (WM3526) [%] | cell count (WM3619) [%] | cell count (WM451Lu) [%] |
| --- | --- | --- | --- | --- | --- | --- |
| CCCCCCCCCCCCCCCCCCOP(=O)([O-])OC1CC[N+](C)(C)CC1 [Perifosine] + COc1ccc(C2=N[C@@H](c3ccc(Cl)cc3)[C@@H](c3ccc(Cl)cc3)N2C(=O)N2CCNC(=O)C2)c(OC(C)C)c1 [Nutlin-3] (partner dose 0.1 µM) | 104 | 98.9 | 115 | 108 | 115 | 105 |
| Cn1sc(=O)n(Cc2ccccc2)c1=O + C=CCNC1=C2C[C@@H](C)C[C@H](OC)[C@H](O)[C@@H](C)/C=C(\C)[C@H](OC(N)=O)[C@@H](OC)/C=C\C=C(/C)C(=O)NC(=CC1=O)C2=O [Tanespimycin] (partner dose 0.002 µM) | 96.7 | 82.7 | 90.6 | 81.1 | 97.3 | 96.3 |
| Cn1sc(=O)n(Cc2ccccc2)c1=O + Cc1cc(N2CCOCC2)cc2[nH]c(-c3c(NC[C@@H](O)c4cccc(Cl)c4)cc[nH]c3=O)nc12 [BMS536924] (partner dose 0.2 µM) | 90.1 | 92.1 | 77.6 | 93.2 | 94.6 | 99.5 |
| CCCCCCCCCCCCCCCCCCOP(=O)([O-])OC1CC[N+](C)(C)CC1 [Perifosine] + O=C(O)c1ccc(-c2c[nH]c3ncc(-c4ccccc4)cc23)cc1C1CCCC1 [GSK650394] (partner dose 0.16 µM) | 91.8 | 88.4 | 93.4 | 81.2 | 87.9 | 109 |
| CCCCCCCCCCCCCCCCCCOP(=O)([O-])OC1CC[N+](C)(C)CC1 [Perifosine] + O=C(Nc1ccccc1)c1cc([N+](=O)[O-])ccc1Cl [GW9662] (partner dose 2 µM) | 99 | 98.3 | 93 | 95.3 | 86.7 | 95.7 |
| C[C@@H](N)c1ccc(C(=O)Nc2ccnc3[nH]ccc23)cc1 + Cn1cc(/C=C2\C(=O)Nc3cccnc32)c2ccccc21 [GW441756] (partner dose 0.4 µM) | 104 | 78.3 | 92 | 114 | 108 | 99.9 |
| Cn1sc(=O)n(Cc2ccccc2)c1=O + O=C(Nc1cccc(Cl)c1)Nc1ncc(CCNc2ncnc3ccsc23)s1 [SNS314] (partner dose 0.0008 µM) | 80.8 | 109 | 85.4 | 83.3 | 94.7 | 68.4 |
| CCCCCCCCCCCCCCCCCCOP(=O)([O-])OC1CC[N+](C)(C)CC1 [Perifosine] + CCN(CC)CCNC(=O)c1c(C)[nH]c(/C=C2\C(=O)Nc3ccc(F)cc32)c1C [sunitinib] (partner dose 0.4 µM) | 113 | 131 | 94.7 | 112 | 121 | 94.2 |
| C[C@@H](N)c1ccc(C(=O)Nc2ccnc3[nH]ccc23)cc1 + Cn1sc(=O)n(Cc2ccccc2)c1=O [TDZD-8] (partner dose 0.4 µM) | 91.1 | 76.5 | 94.2 | 148 | 92.4 | 81.3 |
| C[C@@H](N)c1ccc(C(=O)Nc2ccnc3[nH]ccc23)cc1 + Oc1nc(-c2ccc(C(F)(F)F)cc2)nc2c1CSCC2 [XAV939] (partner dose 2 µM) | 110 | 52.9 | 50.6 | 101 | 134 | 94.5 |
| Cn1sc(=O)n(Cc2ccccc2)c1=O + COc1ccc(-c2ccc3c(N4CCOCC4)nc(N4C[C@@H](C)O[C@@H](C)C4)nc3n2)cc1CO [KU0063794] (partner dose 0.02 µM) | 106 | 96.7 | 93.6 | 85.8 | 94.7 | 107 |
| C[C@@H](N)c1ccc(C(=O)Nc2ccnc3[nH]ccc23)cc1 + CCCS(=O)(=O)Nc1ccc(F)c(C(=O)c2c[nH]c3ncc(Cl)cc23)c1F [PLX4720] (partner dose 0.08 µM) | 95.2 | 63.4 | 81.3 | 85.3 | 77.7 | 96.2 |
| C[C@@H](N)c1ccc(C(=O)Nc2ccnc3[nH]ccc23)cc1 + CN(NC(=O)CC(=O)NN(C)C(=S)c1ccccc1)C(=S)c1ccccc1 [STA4783] (partner dose 0.006 µM) | 90.1 | 44.7 | 30.5 | 112 | 51.2 | 86.3 |
| Cn1sc(=O)n(Cc2ccccc2)c1=O + C#Cc1cccc(Nc2ncnc3cc(OCCOC)c(OCCOC)cc23)c1 [erlotinib] (partner dose 0.8 µM) | 89 | 87.7 | 81.3 | 91.8 | 102 | 91.9 |
| CCCCCCCCCCCCCCCCCCOP(=O)([O-])OC1CC[N+](C)(C)CC1 [Perifosine] + CN(NC(=O)CC(=O)NN(C)C(=S)c1ccccc1)C(=S)c1ccccc1 [STA4783] (partner dose 0.006 µM) | 87.3 | 73.1 | 69.7 | 91 | 93.7 | 119 |
| CCCCCCCCCCCCCCCCCCOP(=O)([O-])OC1CC[N+](C)(C)CC1 [Perifosine] + N#Cc1c(O)c2c(-c3ccc(-c4ccccc4O)cc3)csc2[nH]c1=O [A769662] (partner dose 2 µM) | 118 | 93.8 | 91.9 | 84.1 | 82.9 | 97 |

| Structure (SMILES) | cell count (WM115) [%] | cell count (WM1716) [%] | cell count (WM1745) [%] | cell count (WM3526) [%] | cell count (WM3619) [%] | cell count (WM451Lu) [%] |
| --- | --- | --- | --- | --- | --- | --- |
| Cn1sc(=O)n(Cc2ccccc2)c1=O + CCN(CC)CCNC(=O)c1c(C)[nH]c(/C=C2\C(=O)Nc3ccc(F)cc32)c1C [sunitinib] (partner dose 0.4 µM) | 107 | 122 | 78.7 | 104 | 150 | 98.9 |
| CCCCCCCCCCCCCCCCCCOP(=O)([O-])OC1CC[N+](C)(C)CC1 [Perifosine] + O=S(=O)(c1ccccc1)N(CC(F)(F)F)c1ccc(C(O)(C(F)(F)F)C(F)(F)F)cc1 [T0901317] (partner dose 1.4 µM) | 92.9 | 86.5 | 84.4 | 86.4 | 96.4 | 81.2 |
| C[C@@H](N)c1ccc(C(=O)Nc2ccnc3[nH]ccc23)cc1 + Cc1ccc(NC(=O)c2cccc(N(C)C)c2)cc1NC(=O)c1ccc(O)cc1 [ZM336372] (partner dose 2 µM) | 108 | 71.4 | 88 | 99.9 | 103 | 93.9 |
| CCCCCCCCCCCCCCCCCCOP(=O)([O-])OC1CC[N+](C)(C)CC1 [Perifosine] + CC1(C)CCC(c2ccc(Cl)cc2)=C(CN2CCN(c3ccc(C(=O)NS(=O)(=O)c4ccc(N[C@H](CCN5CCOCC5)CSc5ccccc5)c(S(=O)(=O)C(F)(F)F)c4)cc3)CC2)C1 [ABT263] (partner dose 0.4 µM) | 71.9 | 64.9 | 9.64 | 109 | 88.3 | 77.5 |
| Cn1sc(=O)n(Cc2ccccc2)c1=O + CS(=O)(=O)CCNCc1ccc(-c2ccc3ncnc(Nc4ccc(OCc5cccc(F)c5)c(Cl)c4)c3c2)o1 [lapatinib] (partner dose 0.8 µM) | 98.8 | 98.5 | 98.2 | 107 | 77.4 | 97.3 |
| CCCCCCCCCCCCCCCCCCOP(=O)([O-])OC1CC[N+](C)(C)CC1 [Perifosine] + Cn1c(Nc2ccc(C(F)(F)F)cc2)nc2cc(Oc3ccnc(-c4ncc(C(F)(F)F)[nH]4)c3)ccc21 [CHIR265] (partner dose 0.08 µM) | 60.3 | 83.6 | 64 | 67.3 | 70.4 | 83.8 |
| CCCCCCCCCCCCCCCCCCOP(=O)([O-])OC1CC[N+](C)(C)CC1 [Perifosine] + Oc1cc(-c2nc(-c3ccccc3)[nH]c2-c2ccncc2)ccc1Cl [L779450] (partner dose 0.2 µM) | 75.5 | 96.8 | 83.5 | 78.8 | 75.7 | 97.7 |
| C[C@@H](N)c1ccc(C(=O)Nc2ccnc3[nH]ccc23)cc1 + C=CCNC1=C2C[C@@H](C)C[C@H](OC)[C@H](O)[C@@H](C)/C=C(\C)[C@H](OC(N)=O)[C@@H](OC)/C=C\C=C(/C)C(=O)NC(=CC1=O)C2=O [Tanespimycin] (partner dose 0.002 µM) | 93 | 68.2 | 77.4 | 103 | 106 | 88.3 |
| C[C@@H](N)c1ccc(C(=O)Nc2ccnc3[nH]ccc23)cc1 + Cn1cnc2c(F)c(Nc3ccc(Br)cc3Cl)c(C(=O)NOCCO)cc21 [selumetinib] (partner dose 0.015 µM) | 114 | 59.6 | 83.4 | 116 | 75 | 112 |
| CCCCCCCCCCCCCCCCCCOP(=O)([O-])OC1CC[N+](C)(C)CC1 [Perifosine] + O=C(Nc1cccc(Cl)c1)Nc1ncc(CCNc2ncnc3ccsc23)s1 [SNS314] (partner dose 0.0008 µM) | 84.1 | 93.9 | 82.9 | 88 | 89.5 | 74.2 |
| CCCCCCCCCCCCCCCCCCOP(=O)([O-])OC1CC[N+](C)(C)CC1 [Perifosine] + Cn1nnc2c(C(N)=O)ncn2c1=O [temozolomide] (partner dose 2 µM) | 94.3 | 88.8 | 114 | 99.6 | 94.1 | 93.7 |
| CCCCCCCCCCCCCCCCCCOP(=O)([O-])OC1CC[N+](C)(C)CC1 [Perifosine] + O=C(/C=C/c1cccnc1)NCCCCC1CCN(C(=O)c2ccccc2)CC1 [FK866] (partner dose 0.01 µM) | 94.4 | 90.3 | 102 | 98.3 | 83.2 | 80.2 |
| CCCCCCCCCCCCCCCCCCOP(=O)([O-])OC1CC[N+](C)(C)CC1 [Perifosine] + Cc1nc(Nc2ncc(C(=O)Nc3c(C)cccc3Cl)s2)cc(N2CCN(CCO)CC2)n1 [dasatanib] (partner dose 0.004 µM) | 80.1 | 95.7 | 79.7 | 104 | 119 | 94.1 |
| Cn1sc(=O)n(Cc2ccccc2)c1=O + CN1CCN(c2ccc3nc(-c4c(N)c5c(F)cccc5[nH]c4=O)[nH]c3c2)CC1 [Dovitinib] (partner dose 0.1 µM) | 99.8 | 107 | 112 | 95.7 | 119 | 87.4 |
| C[C@@H](N)c1ccc(C(=O)Nc2ccnc3[nH]ccc23)cc1 + CCN(CC)CCNC(=O)c1c(C)[nH]c(/C=C2\C(=O)Nc3ccc(F)cc32)c1C [sunitinib] (partner dose 0.4 µM) | 110 | 64.3 | 67 | 111 | 144 | 97.1 |
| Cn1sc(=O)n(Cc2ccccc2)c1=O + NCC(=O)Nc1ccc(-n2nc(C(F)(F)F)cc2-c2ccc3c(ccc4ccccc43)c2)cc1 [OSU03012] (partner dose 1 µM) | 76.9 | 94.3 | 94.3 | 52.6 | 104 | 57.8 |

Reference: the supplement of paper PMC4604168 (melanoma cell lines)
